Experimental data as given in PubChem BioAssay AID1768 (National Center for Advancing Translational Sciences (NCATS), 2009).
Out of some 270,000 compounds screened, about 620 (0.23%) were called active. This list was built around the results that the source calls inconclusive (neither active nor inactive); the mix of calls is not that of the screen. Calls follow the shape of the dose curve; as a rule, active = well fitted inhibition curve with a large enough effect in the polarisation, with a control signal flat (not every such curve was filed as active); inconclusive = small, poorly fitted or top-dose-only effect, or effect the other way, or a change in a side signal; inactive = no such curve, though single readings can be large or run the other way; the % refers to the polarisation. Potencies of inconclusive entries are doubtful fits and often do not repeat. “Side channel” marks fits to a control or component signal instead of the main read-out.

molecular target: Menin (Homo sapiens) (UniProt O00255); assay: qHTS Assay for Inhibitors Targeting the Menin-MLL Interaction in MLL Related Leukemias: Competition With Texas Red Labeled MLL-derived Mutant Peptide; conditions: fluorescence polarization; FP activity change, negative = inhibition: at 61.6 µM (top of the series); as to FP activity change, negative = inhibition: % of control where 0% means no effect
Potency is read from the fitted curve at half-maximal effect; tags tell the direction and shape of the fitted curve or compound fluorescence and quenching.

UniProt O00255, sequence (O00255 whole entry, looked up): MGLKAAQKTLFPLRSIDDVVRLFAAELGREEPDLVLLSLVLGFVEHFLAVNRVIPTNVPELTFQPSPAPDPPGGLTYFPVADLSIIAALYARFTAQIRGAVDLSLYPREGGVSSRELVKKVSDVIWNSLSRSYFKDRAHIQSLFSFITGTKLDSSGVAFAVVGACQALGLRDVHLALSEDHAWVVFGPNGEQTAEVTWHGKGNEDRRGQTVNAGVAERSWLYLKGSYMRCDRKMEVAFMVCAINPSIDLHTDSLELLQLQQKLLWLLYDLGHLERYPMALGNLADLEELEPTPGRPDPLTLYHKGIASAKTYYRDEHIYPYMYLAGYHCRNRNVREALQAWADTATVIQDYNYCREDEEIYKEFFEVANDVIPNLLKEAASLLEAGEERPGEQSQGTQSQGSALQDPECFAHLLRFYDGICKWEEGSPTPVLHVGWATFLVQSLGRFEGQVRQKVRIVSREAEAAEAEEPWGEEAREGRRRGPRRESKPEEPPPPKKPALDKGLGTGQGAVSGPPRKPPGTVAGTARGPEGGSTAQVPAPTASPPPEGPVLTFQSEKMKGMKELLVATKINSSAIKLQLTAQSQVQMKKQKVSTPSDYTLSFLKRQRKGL

SMILES | Potency | FP activity change, negative = inhibition
COc1cc(/C=N/NC(=O)CSCc2ccc([N+](=O)[O-])cc2)cc(OC)c1OC | inconclusive: 11.2 µM [inhibitor, partial curve] | –
Cc1c(Cc2ccccc2)c(=O)oc2c(CN(C)C)c(O)c(Cl)cc12 | – | inactive: -11.6%
COc1oc(=O)c2cc(N)ccc2c1Cl | – | inactive: 24.6%
Cc1ccc(C2(C)NC(=O)N(CC(=O)c3ccc(Cl)s3)C2=O)cc1 (stereo unspecified) | inconclusive: 20 µM [quencher, side channel, single point] | –
COc1ccc(NC(=O)c2ccco2)cc1NC(=O)c1cc2ccccc2o1 | inconclusive: 25.1 µM [quencher, side channel, single point] | –
Cc1ccc(S(=O)(=O)Oc2ccc3c(c2)O/C(=C\c2cccnc2)C3=O)cc1 | – | inactive: 0.902%
O=C(CCOc1ccccc1)Nc1cccc([N+](=O)[O-])c1 | inconclusive: 14.1 µM [quencher, side channel, partial curve] | –
Cc1cccc(NC(=S)NNC(=O)COc2ccc(Cl)cc2Cl)c1 | inconclusive: 15.8 µM [quencher, side channel, single point] | –
O=C(CSc1nn(-c2ccc(F)cc2)c(=S)s1)NC(=O)NCc1ccco1 | inconclusive: 25.1 µM [quencher, side channel, partial curve] | –
O=S(=O)(N/N=C\c1ccccc1O)c1ccc(Cl)cc1 | inconclusive: 25.1 µM [quencher, side channel, partial curve] | –
CCC(=O)N1CCc2cc(OC)c(OC)cc2C1COc1ccc(F)cc1 (stereo unspecified) | inconclusive: 20 µM [fluorescent, side channel, partial curve] | –
Cc1ccc(-n2c(C)cc(=O)cc2C)c(C)c1 | – | inactive: -3.58%
COc1cccc(C=Nc2cccc3c(=O)[nH][nH]c(=O)c23)c1O | inconclusive: 15.8 µM [inhibitor, single point] | –
O=C1NC(=Nc2ccccc2Cl)S/C1=C\c1cc([N+](=O)[O-])ccc1O | inconclusive: 28.2 µM [quencher, side channel, single point] | –
Oc1ccc(N=Nc2n[nH]c(-c3ccc(Cl)cc3)n2)cc1 | inconclusive: 31.6 µM [quencher, side channel, partial curve] | –
Cc1cccc(N(CC(=O)NCc2ccco2)C(=O)CCC(=O)Nc2ccccn2)c1C | inconclusive: 20 µM [inhibitor, partial curve] | –
CCOc1ccc2nc(NS(=O)(=O)c3cccs3)sc2c1 | inconclusive: 39.8 µM [quencher, side channel, single point] | –
COC(=O)[C@H](C)NC(=O)C/C=C\[C@@H](C)CO | inconclusive: 3.55 µM [inhibitor, single point] | –
CC/C(=N/Nc1ccccc1)c1cnnc(-c2ccccc2)n1 | – | inactive: 12.3%
O=C(O)c1cccc(N2C(=O)c3cccc4cccc(c34)C2=O)c1 | – | inactive: 17.8%
COc1ccccc1CSc1ncc(-c2ccc([N+](=O)[O-])cc2)[nH]1 | inconclusive: 14.1 µM [quencher, side channel, partial curve] | –

SMILES | Potency | FP activity change, negative = inhibition
CCCC1C(=O)Nc2ccccc2N1C(=O)c1cccc(C)c1 (stereo unspecified) | inconclusive: 39.8 µM [fluorescent, side channel, single point] | –
c1ccc(CN2CCN(c3nc4ccccc4s3)CC2)cc1 | inconclusive: 22.4 µM [inhibitor, partial curve, poor fit] | –
N#Cc1c(-c2ccc(Cl)cc2)cc(-c2ccccc2)nc1SCC(=O)O | inconclusive: 39.8 µM [quencher, side channel, single point] | –
Cc1cnc(CNc2nc(-c3c(C)noc3C)nc3ccccc23)cn1 | – | inactive: 21.7%
NC(=O)c1cccc(NC(=O)CCCCC(=O)Nc2cccc(C(N)=O)c2)c1 | inconclusive: 39.8 µM [inhibitor, single point] | –
Cc1ccc2nc(-c3ccc(NC(=O)CN4C(=O)NC(C)(c5ccc(OC(F)F)cc5)C4=O)cc3)sc2c1 (stereo unspecified) | inconclusive: 3.98 µM [inhibitor, full curve, poor fit] | –
COc1ccccc1NC(=O)CSc1nnc(NC(=O)C2CC2)s1 | inconclusive: 35.5 µM [inhibitor, single point] | –
Brc1ccc(-c2csc(N/N=C/c3ccc4c(c3)OCO4)n2)cc1 | inconclusive: 11.2 µM [quencher, side channel, partial curve] | –
CC(C)n1c(N2CCN(C(=O)Nc3ccc(Cl)cc3)CC2)nc2ccccc21 | inconclusive: 39.8 µM [inhibitor, single point] | –
O=C1OCc2cc(NC(=O)C3CCCO3)ccc21 (stereo unspecified) | – | inactive: 0.33%
COc1cccc2sc(Nc3nnc(-c4ccc(F)cc4)o3)nc12 | inconclusive: 12.6 µM [quencher, side channel, partial curve] | –
CCOC(=O)N1CCN(C(=O)c2oc3ccc(S(=O)(=O)N4CCOCC4)cc3c2C)CC1 | – | inactive: -6.55%
COc1cccc2cc(C(C)N(CCCN3CCOCC3)C(=S)Nc3ccc(C)cc3)oc12 (stereo unspecified) | inconclusive: 11.2 µM [inhibitor, partial curve] | –
Cc1cc(S(=O)(=O)N2CCOCC2)ccc1OCC(=O)Nc1ccc(F)c(Cl)c1 | – | inactive: -13%
CC1CCc2nn(CC(=O)NCCC3=CCCCC3)cc2C1 (stereo unspecified) | inconclusive: 20 µM [fluorescent, side channel, single point] | –
COc1cccc(C(CC(=O)Nc2cccc3ccccc23)NC(=O)c2ccccc2)c1 (stereo unspecified) | inconclusive: 39.8 µM [inhibitor, single point] | –
Cc1ccc(C)c(CSc2ccc3nnc(-c4ccccn4)n3n2)c1 | inconclusive: 22.4 µM [inhibitor, partial curve] | –
COc1ccc(Oc2ncc3nc(C)c(=O)n(C4CC4)c3n2)cc1 | – | inactive: -2.48%
Cc1cccc(C)c1NS(=O)(=O)c1ccc(NC(=O)c2ccc(Cl)c([N+](=O)[O-])c2)cc1 | inconclusive: 25.1 µM [quencher, side channel, partial curve] | –
CCN(CC(=O)Nc1ccccc1C(F)(F)F)C(=O)c1cc(-c2cccs2)nn1-c1ccccc1 | inconclusive: 6.31 µM [inhibitor, single point] | –
Nn1c(SCc2ccc([N+](=O)[O-])cc2)nc2ccccc2c1=O | inconclusive: 22.4 µM [quencher, side channel, single point] | –

SMILES | Potency | FP activity change, negative = inhibition
N#Cc1c(NC(=O)CCN2C(=O)c3ccccc3C2=O)oc(-c2ccccc2)c1-c1ccccc1 | inconclusive: 39.8 µM [inhibitor, single point] | –
Cc1cc2cc(CNC(=O)c3cccs3)ccc2n1C | inconclusive: 39.8 µM [fluorescent, side channel, single point] | –
O=[N+]([O-])c1cc(/C=N/n2c(-c3cccnc3)n[nH]c2=S)ccc1Cl | inconclusive: 31.6 µM [quencher, side channel, single point] | –
CC(=O)c1cccc(NC(=O)COC(=O)COc2c(Cl)cc(Cl)c3ccc(C)nc23)c1 | – | inactive: 8.93%
Cc1cccc(C2=NN(c3ccccc3)[C@@H](C(=O)N3CCOC3=O)[C@@H]2c2ccc(Cl)cc2)c1 | inconclusive: 3.98 µM [quencher, side channel, single point] | –
CCc1cccc(CC)c1NC(=O)CN1CCc2cc(OC)c(OC)cc2C1 | inconclusive: 17.8 µM [inhibitor, single point] | –
CCOC(=O)[C@]1(C(NC(=O)OC)c2ccco2)CCCC1=O (stereo partly specified) | – | inactive: 6.73% [at 11.7 µM]
CC(=O)c1c(CSc2ccccc2)oc2ccc(O)c(CN(C)C)c12 | inconclusive: 22.4 µM [fluorescent, side channel, partial curve] | –
CCOC(=O)N1CCN(S(=O)(=O)c2ccc(C(=O)NNc3nc4c(C)cc(C)cc4s3)cc2)CC1 | inconclusive: 12.6 µM [quencher, side channel, partial curve] | –
CCCC(=O)N1CCN(c2ccc(NC(=O)c3cccs3)cc2)CC1 | – | inactive: -9.24%
CS(=O)(=O)c1ccc(Sc2nc3ccccc3[nH]2)c([N+](=O)[O-])c1 | inconclusive: 17.8 µM [quencher, side channel, partial curve] | –
O=[N+]([O-])c1ccc(Cl)c2c1C1C=CCC1C(c1ccccn1)N2 (stereo unspecified) | inconclusive: 17.8 µM [quencher, side channel, partial curve] | –
Cc1noc(C)c1-c1ccc2ncnc(N3CCOCC3)c2c1 | – | inactive: -1.94%
O=c1[nH]c(S)nc2sc3c(c12)CCCC3 | inconclusive: 31.6 µM [quencher, side channel, single point] | –
CC(=O)c1cccc(N(C(=O)c2ccco2)C(C(=O)NC2CCCC2)c2ccccc2F)c1 (stereo unspecified) | inconclusive: 7.94 µM [inhibitor, partial curve] | –
CNC(=S)N/N=C/c1ccc(-c2cc([N+](=O)[O-])ccc2Cl)o1 | inconclusive: 8.91 µM [quencher, side channel, partial curve] | –
Cc1ccc(C)c(-c2[nH]ncc2CN2CCCC(CO)(Cc3ccccc3C)C2)c1 (stereo unspecified) | inconclusive: 39.8 µM [inhibitor, single point] | –
COc1ccc(C(=O)C2C3C4COC(O4)C(=O)C3C3C=Cc4ccccc4N32)c(OC)c1 (stereo unspecified) | inconclusive: 3.98 µM [fluorescent, side channel, full curve] | –
CCOC(=O)c1c(C)[nH]c(C)c1S(=O)(=O)N(C)CC(=O)N(C)Cc1ccccc1 | inconclusive: 0.631 µM [inhibitor, full curve, poor fit] | –
